{"source": "paper PMC4242493", "note": "Some of the results follow. The list includes weakly bound sequences.", "data": [{"target": "MaxL homodimer (UniProt P61244)", "sequence (P61244 whole entry)": "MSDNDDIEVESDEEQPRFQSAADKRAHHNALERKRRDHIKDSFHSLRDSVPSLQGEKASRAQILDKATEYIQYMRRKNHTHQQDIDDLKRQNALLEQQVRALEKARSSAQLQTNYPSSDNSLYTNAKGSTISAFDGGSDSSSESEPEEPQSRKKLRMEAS", "experiment": "universal protein-binding microarray (PBM)", "conditions": "PBS-based mixture, 10 nM His-tagged protein dimer, 2% milk, 200 ng/uL BSA, 50 ng/uL salmon testes DNA, 0.02% TX-100; detection with Alexa 488 anti-His …; high values mean tight binding; most listed sequences are background and not binding sites; double strand, one strand shown", "values": [{"sequence": "GTTGGGGA", "binding signal (normalized occupancy)": 0.0751}, {"sequence": "CCCGGTAC", "binding signal (normalized occupancy)": 0.0723}, {"sequence": "ATAGCCGG", "binding signal (normalized occupancy)": 0.0679}, {"sequence": "GGTCGGGA", "binding signal (normalized occupancy)": 0.0708}, {"sequence": "CGCAATAA", "binding signal (normalized occupancy)": 0.0739}, {"sequence": "ATATCACG", "binding signal (normalized occupancy)": 0.0924}, {"sequence": "ACTGTTCT", "binding signal (normalized occupancy)": 0.0713}, {"sequence": "AGGAGAGA", "binding signal (normalized occupancy)": 0.0757}, {"sequence": "GTTGTTCA", "binding signal (normalized occupancy)": 0.0746}, {"sequence": "CTGTCGAA", "binding signal (normalized occupancy)": 0.0765}, {"sequence": "TACGTTCA", "binding signal (normalized occupancy)": 0.0748}, {"sequence": "ACCCCACT", "binding signal (normalized occupancy)": 0.0842}, {"sequence": "ATACTCTA", "binding signal (normalized occupancy)": 0.074}, {"sequence": "ATTTGAGC", "binding signal (normalized occupancy)": 0.0747}, {"sequence": "CTAACCGA", "binding signal (normalized occupancy)": 0.0708}, {"sequence": "AGCCCCGG", "binding signal (normalized occupancy)": 0.0697}, {"sequence": "ACAGCTCC", "binding signal (normalized occupancy)": 0.0727}, {"sequence": "AGGCTTAG", "binding signal (normalized occupancy)": 0.0703}, {"sequence": "CTCAACAA", "binding signal (normalized occupancy)": 0.0728}, {"sequence": "ATTCATGA", "binding signal (normalized occupancy)": 0.082}, {"sequence": "ATCAGCCC", "binding signal (normalized occupancy)": 0.0832}, {"sequence": "CTGTCACA", "binding signal (normalized occupancy)": 0.0849}, {"sequence": "GAGTTCGA", "binding signal (normalized occupancy)": 0.0753}, {"sequence": "AAGGTAAA", "binding signal (normalized occupancy)": 0.0718}, {"sequence": "GCAAAAAC", "binding signal (normalized occupancy)": 0.0756}, {"sequence": "AGGGAAGC", "binding signal (normalized occupancy)": 0.072}, {"sequence": "CTTCTGGA", "binding signal (normalized occupancy)": 0.0731}, {"sequence": "CCCGGCGG", "binding signal (normalized occupancy)": 0.0707}, {"sequence": "CTAAACAG", "binding signal (normalized occupancy)": 0.0721}, {"sequence": "CGGAGCAG", "binding signal (normalized occupancy)": 0.0661}, {"sequence": "AGGAAAGC", "binding signal (normalized occupancy)": 0.0732}, {"sequence": "ACTTGGAT", "binding signal (normalized occupancy)": 0.0756}, {"sequence": "AATTTAAT", "binding signal (normalized occupancy)": 0.0753}, {"sequence": "CAACCATG", "binding signal (normalized occupancy)": 0.0905}, {"sequence": "CAAAGGGC", "binding signal (normalized occupancy)": 0.0671}, {"sequence": "GAGTGCCA", "binding signal (normalized occupancy)": 0.0814}, {"sequence": "CCTCGATC", "binding signal (normalized occupancy)": 0.0708}, {"sequence": "GCAGAGAC", "binding signal (normalized occupancy)": 0.0728}, {"sequence": "CCTGCCGC", "binding signal (normalized occupancy)": 0.0697}, {"sequence": "ATAGGCGA", "binding signal (normalized occupancy)": 0.0754}, {"sequence": "ATCCAGTC", "binding signal (normalized occupancy)": 0.0727}, {"sequence": "ACCAAGAG", "binding signal (normalized occupancy)": 0.0755}, {"sequence": "GAAGATGC", "binding signal (normalized occupancy)": 0.0756}, {"sequence": "TACAGCAA", "binding signal (normalized occupancy)": 0.0786}, {"sequence": "AAAGAAAT", "binding signal (normalized occupancy)": 0.0716}, {"sequence": "CTTCCAGC", "binding signal (normalized occupancy)": 0.0671}, {"sequence": "GAAATGAA", "binding signal (normalized occupancy)": 0.0749}, {"sequence": "CATAGACA", "binding signal (normalized occupancy)": 0.0809}, {"sequence": "CTGAGCGA", "binding signal (normalized occupancy)": 0.0679}, {"sequence": "GAGTCGCA", "binding signal (normalized occupancy)": 0.0717}, {"sequence": "CCGAACCG", "binding signal (normalized occupancy)": 0.0718}, {"sequence": "CTGTAGGA", "binding signal (normalized occupancy)": 0.0736}, {"sequence": "CGAGTGCG", "binding signal (normalized occupancy)": 0.0772}, {"sequence": "ATTACTAA", "binding signal (normalized occupancy)": 0.0798}, {"sequence": "AGTTCGGG", "binding signal (normalized occupancy)": 0.0708}, {"sequence": "AGAGCTCT", "binding signal (normalized occupancy)": 0.0713}, {"sequence": "ATATCAAC", "binding signal (normalized occupancy)": 0.0785}, {"sequence": "CCGTCAGC", "binding signal (normalized occupancy)": 0.0671}, {"sequence": "CGTGGCGC", "binding signal (normalized occupancy)": 0.0838}, {"sequence": "GCGAATCC", "binding signal (normalized occupancy)": 0.0769}, {"sequence": "AATAGCCC", "binding signal (normalized occupancy)": 0.0752}, {"sequence": "AGTCCGAT", "binding signal (normalized occupancy)": 0.0714}, {"sequence": "ACATTGCG", "binding signal (normalized occupancy)": 0.0807}, {"sequence": "CAATCGGG", "binding signal (normalized occupancy)": 0.0722}, {"sequence": "ATGAGGAA", "binding signal (normalized occupancy)": 0.0798}, {"sequence": "CTAACCAA", "binding signal (normalized occupancy)": 0.0724}, {"sequence": "ACTAGACG", "binding signal (normalized occupancy)": 0.0772}, {"sequence": "AGAAAGCC", "binding signal (normalized occupancy)": 0.0708}, {"sequence": "CATGCCAG", "binding signal (normalized occupancy)": 0.0874}, {"sequence": "AACATTGC", "binding signal (normalized occupancy)": 0.0715}, {"sequence": "AGATGATA", "binding signal (normalized occupancy)": 0.0844}, {"sequence": "CTTATTGC", "binding signal (normalized occupancy)": 0.0763}, {"sequence": "CACAAAAC", "binding signal (normalized occupancy)": 0.0751}, {"sequence": "AGCCGAAC", "binding signal (normalized occupancy)": 0.0687}, {"sequence": "AGCTATTG", "binding signal (normalized occupancy)": 0.0682}, {"sequence": "ACGGTTGC", "binding signal (normalized occupancy)": 0.0771}, {"sequence": "ACGTCGAG", "binding signal (normalized occupancy)": 0.0794}, {"sequence": "CGAGTCAG", "binding signal (normalized occupancy)": 0.0712}, {"sequence": "ATGGTTCC", "binding signal (normalized occupancy)": 0.0827}, {"sequence": "AGCCTTAT", "binding signal (normalized occupancy)": 0.081}, {"sequence": "TGATCAAA", "binding signal (normalized occupancy)": 0.0804}, {"sequence": "AACTGAAC", "binding signal (normalized occupancy)": 0.0746}, {"sequence": "CCGCTCTC", "binding signal (normalized occupancy)": 0.0714}, {"sequence": "CCTCCAAC", "binding signal (normalized occupancy)": 0.0778}, {"sequence": "GAGCCAAA", "binding signal (normalized occupancy)": 0.0676}, {"sequence": "CTCCTCTA", "binding signal (normalized occupancy)": 0.0758}, {"sequence": "AATCCAGG", "binding signal (normalized occupancy)": 0.0741}, {"sequence": "CGGCTTCC", "binding signal (normalized occupancy)": 0.0699}, {"sequence": "AAAGGCCG", "binding signal (normalized occupancy)": 0.0652}, {"sequence": "ATGTTATC", "binding signal (normalized occupancy)": 0.0868}, {"sequence": "ATACACAC", "binding signal (normalized occupancy)": 0.094}, {"sequence": "AGGTCGGG", "binding signal (normalized occupancy)": 0.0708}, {"sequence": "GGCCCTGA", "binding signal (normalized occupancy)": 0.072}, {"sequence": "ATGCTGGG", "binding signal (normalized occupancy)": 0.0808}]}]}
